Test results published in US20160176973A1 (published 2016).

Tests used:
Assay in all cases: SPR (Biacore)
BCMA 101 x CD3 = biological target: BCMA 101 x CD3
BCMA-107 x CD3 = biological target: BCMA-107 x CD3
BC 247-C3 x CD3 = biological target: BC 247-C3 x CD3
BCMA 102 x CD3 = biological target: BCMA 102 x CD3

Kd (BCMA 101 x CD3): 0.8 nM
Kd (BCMA-107 x CD3): 11.7 nM
Kd (BC 247-C3 x CD3): 0.6 nM
Kd (BCMA 102 x CD3): 0.3 nM
B1: Macaque BCMA (receptor)
chain (part 1 of 2): [about 60 residues omitted]NASGGGGSEAHKSEIAHRYNDLGEQHFKGLVLIAFSQYLQKCSYDEHAKLVQEVTDFAKTCVADESAANCDKSLHTLFGDKLCAIPNLRENYGELADCCTKQEPERNECFLQHKDDNPSLPPFERPEAEAMCTSFKENPTTFMGHYLHEVARRHPYFYAPELLYYAEQYNEILTQCCAEADKESCLTPKLDGVKEKALVSSVRQRMKCSSMQKFGERAFKAWAVARLSQTFPNADFAEITKLATDLTKVNKECCHGDLLECADDRAELAKYMCENQATISSKLQTCCDKPLLKKAHCLSEVEHDTMPADLPAIAADFVEDQEVCKNYAEAKDVFLGTFLYEYSRRHPDYSVSLLLRLAKKYEATLEKCCAEANPPACYGTVLAEFQPLVEEPKNLVKTNCDLYEKLGEYGFQNAILVRYTQKAPQVSTPTLVEAARNLGRVGTKCCTLPEDQRLPCVEDYLSAILNRVCLLHEKTPVSEHVTKCCSGSLVERRPCFSALTVDETYVPKEFKAETFTFHSDICTLPEKEKQIKKQTALAELVKHKPKATAEQLKTVMDDFAQFLDTCCKAADKDTCFSTEGPNLVTRCKDALA
chain (part 2 of 2): SGHHGGHHGGHH
